{
  "source": "patent US20170066797A1",
  "about": "“WITHAFERIN A ANALOGS AND USES THEREOF” (Whitehead Institute for Biomedical Research, priority 2008, published 2017)",
  "key": {"[1]": {"system": "WI-38 fibroblasts", "assay": "Detection of F-actin aggregation (phalloidin staining)", "assay_type": "cell-based, Human", "settings": "4 μM, 4 or 24 h, FIG. 3", "procedure": "FIGS. 3A-3D. Induction of F-actin aggregation. Following incubation with test compounds for the indicated intervals, WI-38 fibroblasts were fixed and stained with fluorescently-labeled phalloidin (green signal) to visualize the actin cytoskeleton. Cells were counterstained with DAPI (blue signal) to identify their nuclei. All images were acquired using the same magnification and exposure conditions. Data are representative of two independent experiments. (A) DMSO, 24 h incubation. (B) Withaferin A, 4 h. (C) 2,3-Dihydrowithaferin A-3β-O-sulfate, 4 h. (D) 2,3-Dihydrowithaferin A-3β-O-sulfate, 24 h.\nCells were seeded in 8-well chamber slides at a density of 2×10^4 cells per well and allowed to adhere for 48 h. Compounds 1 and 2 were freshly prepared as 5 mM stock solutions in DMSO and applied to cells at a final concentration of 4 μM in RPMI culture medium supplemented with 10% fetal bovine serum, Glutamax™, and penicillin/streptomycin. Control wells were treated with an equal volume of DMSO, not exceeding 0.2% in culture media. Cells were incubated for 4 or 24 h in the continuous presence of the indicated compounds, then washed twice with PBS, fixed with 4% paraformaldehyde/PBS (pH 7.6), and permabilized with 0.1% triton-X 100/PBS. […]"}, "[2]": {"system": "PC-3M (prostate) tumor cells", "assay": "Matrigel tumor cell invasion/migration, PC-3M", "assay_type": "cell-based", "settings": "24 hours, FIG. 4", "procedure": "(§1) FIG. 4. Inhibition of tumor cell invasion/migration. PC-3M (prostate) and CHP-100 (Ewing's sarcoma) tumor cells were seeded into Matrigel-coated invasion chambers and exposed to increasing concentrations of withaferin A (WA) or DMSO for 24 hours. Relative viable cell number and invasion were determined by MTT assay. Results are presented as % compared to wells exposed to DMSO alone. Results shown are representative of three independent experiments."}, "[3]": {"system": "CHP-100 (Ewing's sarcoma) tumor cells", "assay": "Matrigel tumor cell invasion/migration, CHP-100", "assay_type": "cell-based", "settings": "24 hours, FIG. 4", "procedure": "as §1"}, "[4]": {"system": "Human umbilical vein endothelial cells (HUVEC)", "assay": "Endothelial cell network (tube) formation on Matrigel", "assay_type": "cell-based", "settings": "16 h, FIG. 6", "procedure": "FIG. 6. […] Human umbilical vein endothelial cells (HUVEC) were seeded into Matrigel-coated wells and allowed to adhere for 1 h. Adherent cells were exposed to the indicated concentrations of withaferin A, epi-withaferin A (α-WA) or an equal volume of solvent vehicle (DMSO) for 16 h. Cells were washed 1× in PBS and fixed to visualize tube formation by light microscopy."}, "[5]": {"system": "CHP-100 tumor xenografts", "assay": "Tumor vascularization (microvessel density, CD-34) in CHP-100 xenografts", "assay_type": "in vivo, SCID mice", "settings": "IP 7.5 mg/kg for 2 days and 3.5 mg/kg for 8 days; P value <0.01 vs DMSO, FIG. 7", "procedure": "FIG. 7. […] SCID mice bearing CHP-100 tumor xenografts were treated with IP injections of DMSO (50 μl for 10 days) or withaferin A (WA) (7.5 mg/kg for 2 days and 3.5 mg/kg for 8 days) after tumor establishment. Upper panels: Microvessel density (MVD) of excised tumors from each treatment group (DMSO, left panel; WA, right panel) was visualized using formalin-fixed, paraffin-embedded material sectioned at four to five microns-thick. Samples were stained with antibody to CD-34 and detected through the use of indirect avidin-biotin-peroxidase methodology. Nuclei were counterstained with hematoxylin and sections were evaluated by light microscopy. Lower Panel: Vascular density was quantitated by light microscopy based on the methods of the Weidner research group (**P value <0.01). Unpaired Student's t-test used to calculate P values. Error bars: s.d."}, "[6]": {"system": "Hsp72", "assay": "HSF1-dependent Hsp72 induction, immunoblot in Hsf1(-) and Hsf1(+) embryo fibroblasts", "assay_type": "cell-based, mouse", "settings": "2 μM overnight, FIG. 9", "procedure": "FIG. 9. HSF1-dependent induction of the heat shock response. Immortalized mouse embryo fibroblasts derived from mice in which Hsf1 was knocked out [Hsf1(−)] or their wild type littermates; [Hsf1(+)] were exposed overnight to DMSO (0.2%) (lanes 1 and 4), geldanamycin (GA, 0.5 μM) (lanes 2 and 5), or withaferin A (WA) (2 μM) (lanes 3 and 6). Equal amounts of total cellular protein were immunoblotted for relative levels of a highly inducible heat shock protein (Hsp72).\nImmortalized mouse embryo fibroblasts derived from homozygous Hsf1 knockout mice or their wild type littermates were exposed overnight to equitoxic concentrations of 1 or the known heat shock-inducing Hsp90 inhibitor gendanamycin. Whole cell lysates were prepared in non-ionic detergent buffer and immunoblotted for relative levels of Hsp72, a highly inducible member of the Hsp70 family of molecular chaperones, using monoclonal antibody C92F3A-5 (StressMarq Biosciences, Victoria, BC). Reactivity was detected using peroxidase-conjugated secondary antibody and chemiluminescent detection. To evaluate the relative ability of compounds to induce a heat shock response at the transcriptional level, a reporter cell line was used as previously described (Turbyville, et al., J. Nat. Prod. (2006) 69: 178-184, incorporated herein by reference). […]"}, "[7]": {"system": "Primary human astrocytes", "assay": "Gene expression profiling of astrocytes (Agilent whole genome arrays)", "assay_type": "cell-based", "settings": "1 μM, 6 hours", "procedure": "Primary human astrocytes were exposed to WA (1 μM) or an equal volume of DMSO solvent for 6 hours. RNA was isolated by phenol-chloroform extraction, reverse transcribed, labeled and hybridized to Agilent dual-color human whole genome arrays followed by standard analysis for relative mRNA levels."}, "[8]": {"system": "PC12 cells expressing HttQ103", "assay": "PC12 cell culture model of Huntington's disease (HttQ103), MTT"}},
  "data": [
    {"molecule": "CC1=C(CO)C(=O)OC([C@@H](C)C2CCC3C4C[C@H]5O[C@]56[C@@H](O)C=CC(=O)[C@]6(C)C4CC[C@@]32C)C1", "note": "(stereo partly shown) [Withaferin A]", "values": [
      {"measurement": "induction of F-actin aggregation", "setting": "[1]", "value": "induced F-actin aggregation"},
      {"measurement": "inhibition of tumor cell migration and invasion, prostate cancer cells", "setting": "[2]", "value": "inhibit tumor cell migration and invasion"},
      {"measurement": "inhibition of tumor cell migration and invasion, Ewing's sarcoma cells", "setting": "[3]", "value": "inhibit tumor cell migration and invasion"},
      {"measurement": "inhibition of endothelial cell network formation", "setting": "[4]", "value": "disrupts the endothelial cell network"},
      {"measurement": "inhibition of tumor vascularization (vascular density)", "setting": "[5]", "value": "inhibits tumor vascularization"},
      {"measurement": "HSF1 dependence of heat shock protein (Hsp72) induction", "setting": "[6]", "value": "requires Heat Shock Factor 1 (HSF1)"},
      {"measurement": "anti-oxidant defense response in astrocytes", "setting": "[7]", "value": "triggers a robust anti-oxidant defense response"},
      {"measurement": "transcriptional heat shock response in astrocytes", "setting": "[7]", "value": "induction of an adaptive transcriptional response that includes classic elements of the heat shock response"},
      {"measurement": "concentrations that did not significantly impair MTT reduction by PC12 cells", "setting": "[8]; data not shown", "value": "up to 10 μM"},
      {"measurement": "rescue of HttQ103 toxicity in PC12 cells", "setting": "[8]; tebufenozide-induced, 48 hour, MTT, FIG. 15", "value": "a low nanomolar concentration of WA effectively rescued toxicity"}
    ]}
  ]
}
